The source gives no read counts; variants with many changes may rest on few reads.

The chains are these.
B1: CPEB3 Ribozyme (parent)
chain: UAACAGGGGGCCACAGCAGAAGCGUUCACGUCGCAGCCCCUGUCAGAUUCUGGUGAAUCUGCGAAUUCUGCUGUAUAUCUC

Variants of B1 are the subject of this data set. Nature of the data set: self-cleavage, relative activity (ratio to wild type); higher = more cleavage; in vitro, sequencing. The procedure, abridged:
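Libraries of CPEB3 self-cleaving ribozyme mutants came from rounds of error-prone PCR and carried barcodes, which DNA sequencing matched to variants. In vitro transcription used T7 RNA polymerase at 37°C for 5 hours, with a further 15 min in DNase I before EDTA stopped the reaction; the ribozymes cleaved during both steps. The RNA was reverse transcribed with template switching and sequenced on Illumina. Relative activity is the cleaved/total read fraction of a variant divided by that of the unmutated ribozyme, averaged over three batches with at least 5 reads.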
In the case of A5U A15C A45C U49C U58A U67C, the self-cleavage was found to be 0.12.

For A5G G19A A45U, the self-cleavage came out at 0.39.

For A5G U49A U72G, the self-cleavage was found to be 0.46.

Regarding A5U A45U U69C, the self-cleavage worked out at 0.24.

On to A5G C37G A57C U76C, for which the self-cleavage was 0.31.

As for A5U A20G U48C A57G G61C U78A, the self-cleavage worked out at 0.23.

A5U C14A U25G U41C: the self-cleavage was 0.12.

For A5G G7U A18U U67A U72C, the self-cleavage is 0.16.

Regarding A5G C38U A56G A65U U66C, the self-cleavage was 0.34.

A5U A28C C62G: the self-cleavage worked out at 0.74.

Take A5U G9C U48C A57G U69C: the self-cleavage worked out at 0.07.

A5G U51C U69A: the self-cleavage worked out at 0.14.

Consider A5U A28U U43C A57U A64C U74C, for which the self-cleavage turned out to be 0.12.

With A5G U58C U72C, the self-cleavage stood at 0.21.

On to A5G U31C G33A, for which the self-cleavage amounted to 0.09.

Take A5G G8U G30C U69A U72C: the self-cleavage was 0.05.

Consider A5G U76A U80C, for which the self-cleavage amounted to 0.78.

With A5G U41C U43A U66C, the self-cleavage was 0.33.

Consider A5G G7A C40G A45G U49A, for which the self-cleavage came to 0.28.

As for A5G G52C U80C, the self-cleavage came out at 0.93.

On to A5U G10A A13U U25C A35G U51C, for which the self-cleavage is 0.27.

In the case of A5U A64G U66C, the self-cleavage was 0.29.

Take A5G G7A A13U U26A: the self-cleavage was 0.27.

Turning to A5U A47U U67C, the self-cleavage turned out to be 0.23.

For the variant A5G G33A U74A, the self-cleavage stood at 0.19.

As to A5U C32U U41A, the self-cleavage was 0.37.

On to A5G C34A U51A U78C U80C, for which the self-cleavage was determined as 0.06.

Take A5U G7C C40A: the self-cleavage was found to be 0.14.

Take A5U G8C U66C U78C U80C C81U: the self-cleavage was determined as 0.2.

A5G U54A U67C U69C: the self-cleavage came out at 0.43.

For the variant A5U C17U U25C A64G C79G U80C, the self-cleavage came out at 0.21.

For the variant A5G U26C U66C, the self-cleavage stood at 0.26.

Regarding A5G U25A A35U A64U G70U A75G, the self-cleavage stood at 0.09.

With A5U C23A C71A, the self-cleavage came to 0.14.

For A5U C62U U66C, the self-cleavage was found to be 0.21.

A5U A28U A35U A64G U78C: the self-cleavage was 0.49.

Turning to A5G U26G G61A U74C A75G, the self-cleavage was 0.52.

A5U G10A U41A U51C A77U: the self-cleavage came to 0.33.

As for A5G G7U A64G, the self-cleavage came to 0.14.

Consider A5U C23G A45G A56G A57G A65U U80A, for which the self-cleavage is 0.06.

Take A5G U54G A56G U80C: the self-cleavage is 0.62.

In the case of A5U A18U A28G A45G U72C, the self-cleavage is 0.27.

On to A5G G6U A28U, for which the self-cleavage came to 0.29.

On to A5G U26G U41A, for which the self-cleavage was found to be 0.37.

As for A5U A35G U41G A47G U72A, the self-cleavage is 0.07.

Take A5U A18U A21G U31A U41A: the self-cleavage stood at 0.34.

For the variant A5U A21G U76C, the self-cleavage was 1.15.

For A5U C23U U25C A47G U80C, the self-cleavage was determined as 0.11.

For the variant A5G G10A A13G C17U A20G A56U U66C, the self-cleavage was determined as 0.08.

Take A5U C17G U51A: the self-cleavage was 0.39.

A5U G7U A28U A56G U58A G70A: the self-cleavage came out at 0.06.

With A5G U48C U54G U80C, the self-cleavage was found to be 0.39.

Consider A5G G8A U26C A28U A75U, for which the self-cleavage was 0.05.

As to A5G U25A A56U, the self-cleavage was found to be 0.2.

As for A5G C32A G53A G61A, the self-cleavage worked out at 0.1.

For A5G U43A A56G, the self-cleavage came out at 0.66.

Take A5U G7U U48A A56G U58C U69C: the self-cleavage turned out to be 0.16.

Consider A5U A13G U69C, for which the self-cleavage worked out at 0.39.

On to A5U A45G A47U, for which the self-cleavage stood at 0.37.

On to A5U A21G U41A U67A, for which the self-cleavage came to 0.23.

As for A5G G53A U66C, the self-cleavage came out at 0.27.

A5G C44A U69A: the self-cleavage is 0.35.

As for A5U C23U A57G U58C, the self-cleavage was 0.54.

Regarding A5G U43C U69A, the self-cleavage came to 0.26.

Take A5U G7C A21G U43C U60C: the self-cleavage is 0.44.

In the case of A5G U43C A77G, the self-cleavage amounted to 0.42.

Regarding A5G U31A A35C U49C U51C U74C, the self-cleavage turned out to be 0.07.

For the variant A5U C11G U26A A47G G52A, the self-cleavage was 0.06.

For A5G U26C U60A U67C, the self-cleavage is 0.04.

Consider A5U A15U U66A, for which the self-cleavage was determined as 0.28.

Regarding A5G U54C A57G U58A, the self-cleavage is 0.21.

For A5U G10C C29U U31C G63A G70C G73A, the self-cleavage stood at 0.05.

With A5U C50U U67C, the self-cleavage is 0.22.

With A5U A21G A35G G36U U48C U67C A75G, the self-cleavage came to 0.05.

As to A5U A15C A47G U60A, the self-cleavage worked out at 0.47.

Regarding A5G U43G U54C, the self-cleavage is 0.1.

Take A5G U69A A75G: the self-cleavage worked out at 0.31.

Take A5G G6A C59A C62A: the self-cleavage was 0.16.

Take A5G G53U A56G A57U: the self-cleavage was determined as 0.28.

A5G G8U U26C A35G: the self-cleavage came to 0.44.

In the case of A5U C11A G19A C32G U69A U76C, the self-cleavage was found to be 0.11.

For A5U G10A G73A, the self-cleavage is 0.71.

Regarding A5U A13U U25A C29U U80C, the self-cleavage came to 0.21.

These data come from the RNAGym collection of RNA variant scans (doi:10.1093/nar/gkz1192).
